Measurements as given in patent US20230099801A1, “RESTORATION OF T CELL ACTIVITY VIA THE CD39/CD73 AXIS” (INNATE PHARMA, priority 2017, published 2023).
Positions count from the first letter of the chain named. Entries after “also recorded” stand apart in the source; their conditions may differ. Values belong to the molecule of their own block, whether it stands above or below them.

What was measured:
[1] = biological target: T1, soluble recombinant human CD39 protein (Homo sapiens, UniProt P49961); assay: Inhibition of the enzymatic (ATPase) activity of soluble CD39, Cell Titer Glo; type: biochemical; details: for inhibition of the enzymatic (ATPase) activity of soluble CD39 protein: 400 ng/ml soluble CD39, 20 μM ATP; for relative potency for inhibition of soluble CD39: FIG. 2B, comparison of I-394, I-395, I-396
T1 construct: made in house; host or cells: CHO cells
T1 sequence (P49961 with tags, fused parts or gaps): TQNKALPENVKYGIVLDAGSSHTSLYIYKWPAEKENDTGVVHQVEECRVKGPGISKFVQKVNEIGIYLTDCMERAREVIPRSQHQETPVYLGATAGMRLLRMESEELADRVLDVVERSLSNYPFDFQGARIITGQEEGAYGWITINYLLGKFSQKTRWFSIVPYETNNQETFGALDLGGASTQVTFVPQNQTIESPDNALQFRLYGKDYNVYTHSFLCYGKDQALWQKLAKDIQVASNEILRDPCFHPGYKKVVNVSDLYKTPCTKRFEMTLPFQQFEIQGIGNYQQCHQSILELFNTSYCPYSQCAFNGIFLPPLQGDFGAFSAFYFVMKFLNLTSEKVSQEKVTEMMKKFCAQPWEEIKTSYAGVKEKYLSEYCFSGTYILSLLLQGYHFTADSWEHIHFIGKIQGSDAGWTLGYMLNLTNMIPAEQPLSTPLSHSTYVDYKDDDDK
Protocol: The ability of an antibody to inhibit soluble recombinant human CD39 protein can be tested by detecting ATP after incubating test antibody with soluble CD39 protein (e.g., the CD39 protein having the amino acid sequence of SEQ ID NO: 5, as produced in Example 1, optionally further comprising a purification tag or other functional or non-functional non-CD39-derived amino acid sequence). See, e.g., Example 1. Briefly, ATP can be quantified using the Cell Titer Glo™ (Promega), in an assay in which dose ranges of test antibody are incubated with soluble recombinant human CD39 protein described in Example 1, for 1 hour at 37° C. 20 μM ATP are added to the plates for 30 additional minutes at 37° C. before addition of CTG reagent. Emitted light is quantified using an Enspire™ luminometer after a short incubation period of 5 min in the dark.
The inhibition by antibodies of the enzymatic activity of soluble CD39 protein produced was evaluated using Cell Titer Glo™ (Promega, reference G7571) that allows assessment of ATP hydrolysis through use of a reagent that generates a luminescent signal proportional to the amount of ATP present. In this way, inhibition of the soluble-CD39-mediated ATP hydrolysis can be assessed. Briefly, dose ranges of anti-CD39 antibodies from 100 μg/ml to 6×10^−3 μg/ml were incubated with 400 ng/ml of soluble recombinant human CD39 protein having the amino acid sequence described in the Methods section (SEQ ID NO: 54), for 1h at 37° C. 20 μM ATP was added to the plates for 30 additional minutes at 37° C. before addition of CTG (Cell Titer Glo) reagent. Emitted light was quantified using an Enspire™ luminometer after a short incubation period of 5 min in the dark. Anti-CD39 antibody efficacy was determined by comparing emitted light in presence of antibody with ATP alone (maximal light emission) and ATP together with soluble CD39 protein (minimal light emission).

[2] = biological target: T2, cell-membrane bound CD39 (CD39-expressing cells) (Homo sapiens, UniProt P49961); assay: Inhibition of the enzymatic activity of cellular CD39, Cell Titer Glo; type: cell-based
T2 construct: host or cells: CD39-expressing cells
T2 sequence (P49961 1-510): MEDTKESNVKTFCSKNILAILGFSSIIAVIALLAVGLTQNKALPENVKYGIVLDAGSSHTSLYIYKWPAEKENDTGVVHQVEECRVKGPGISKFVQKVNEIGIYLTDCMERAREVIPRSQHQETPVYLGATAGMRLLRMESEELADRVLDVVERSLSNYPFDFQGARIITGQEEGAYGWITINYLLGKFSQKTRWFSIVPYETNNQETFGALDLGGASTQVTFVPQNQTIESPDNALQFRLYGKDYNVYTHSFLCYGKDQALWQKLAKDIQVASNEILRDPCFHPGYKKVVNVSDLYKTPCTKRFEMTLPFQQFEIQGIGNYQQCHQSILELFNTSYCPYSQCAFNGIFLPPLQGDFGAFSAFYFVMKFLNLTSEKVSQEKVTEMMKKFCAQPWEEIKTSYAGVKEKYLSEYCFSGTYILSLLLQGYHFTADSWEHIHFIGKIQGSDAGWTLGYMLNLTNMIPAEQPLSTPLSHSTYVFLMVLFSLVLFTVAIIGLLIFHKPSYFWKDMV
Protocol: The ability of an antibody to inhibit cells expressing CD39 protein can be tested by detecting ATP after incubating test antibody with cells (e.g., Ramos cells, cells transfected with CD39, etc.). See, e.g., Example 1. Cells can be incubated for 1 hour at 37° C. with test antibody. Cells are then incubated with 20 μM ATP for 1 additional hour at 37° C. Plates are centrifuged for 2 min at 400 g and cell supernatant are transferred in a luminescence microplate (white wells). CTG is added to the supernatant and emitted light is quantified after a 5 min incubation in the dark using an Enspire™ luminometer. Anti-CD39 antibody efficacy is determined by comparing emitted light in presence of antibody with ATP alone (maximal light emission) and ATP together with cells (minimal light emission).
The inhibition of the CD39 enzymatic activity in CD39-expressing cells by antibodies was evaluated using Cell Titer Glo™ (Promega, reference G7571) that allows assessment of ATP hydrolysis through use of a reagent that generates a luminescent signal proportional to the amount of ATP present. The assay was thus designed to permit assessment of the inhibition of ATP hydrolyzed by CD39 in the cell culture supernatant. Briefly, 5×10^4 Ramos human lymphoma cells, 5×10^3 human CD39-, cynomolgus CD39—and mouse CD39-expressing CHO cells, were incubated 1 hour at 37° C. with anti-CD39 antibodies from 30 μg/ml to 5×10^−4 μg/ml. Cells were then incubated with 20 μM ATP for 1 additional hour at 37° C. Plates were centrifuged for 2 min at 400 g and 50 μl cell supernatant are transferred in a luminescence microplate (white wells). 50 μl CellTiter-Glo® Reagent (CTG) was added to the supernatant and emitted light was quantified after a 5 min incubation in the dark using a Enspire™ luminometer. Anti-CD39 antibody efficacy was determined by comparing emitted light in presence of antibody with ATP alone (maximal light emission) and ATP together with cells (minimal light emission).

inhibition of the enzymatic (ATPase) activity of soluble CD39 protein [1]: inhibit
relative potency for inhibition of soluble CD39 [1]: followed by I-395
inhibition of the enzymatic activity of cellular (cell-membrane bound) CD39 [2]: inhibit
B1: I-395: anti-CD39 antibody, VH SEQ ID NO: 14, VL SEQ ID NO: 15 (antibody, listed as Mus musculus, V domains shown)
VH: EVQLQQSGPELVKPGASVRMSCKASGYTFTDYNMHWVKKNHGKGLEWIGYINPNNGGTTYNQKFKGKATLTVNTSSKTAYMELRSLTSEDSAVYYCTRGGTRFASWGQGTLVTVSA
VL: NIVLTQSPASLAVSLGQRATISCRASESVDNYGISFMYWFQQKPGQPPKLLIYAASTQGSGVPARFSGSGSGTDFSLNIHPMEEDDTAMYFCQQSKEVPFTFGSGTKLEIK
potency and maximal inhibition of cellular CD39 compared to BY40 ([2]; FIG. 2A): greater potency and maximal inhibition; also recorded: greater potency at all concentrations as well as greater maximal inhibition

inhibition of the enzymatic (ATPase) activity of soluble CD39 protein [1]: inhibit
relative potency for inhibition of soluble CD39 [1]: lower potency
inhibition of the enzymatic activity of cellular (cell-membrane bound) CD39 [2]: inhibit
B2: I-396: anti-CD39 antibody, VH SEQ ID NO: 22, VL SEQ ID NO: 23 (antibody, listed as Mus musculus, V domains shown)
VH: EVQLQQSGAELVKPGASVKLSCIVSGFNIKDTYINWVKQRPEQGLEWIGRIDPANGNTKYDPKFQGKATMTSDTSSNTAYLHLSSLTSDDSAVYYCARWGYDDEEADYFDSWGQGTTLTVSS
VL: B1 VL with N1D, Y38N, T57N, H80L, D85V, T87A, Q93H, F100W, S104G
